Results: PubChem BioAssay AID624296 (National Center for Advancing Translational Sciences (NCATS), 2012)
The whole screen tested about 350,000 compounds, of which about 9,900 (2.8%) were called active. The shares of active, inactive and inconclusive entries below differ from those in the screen. The call rests on the fitted dose curve; in most records, active means well fitted activation curve with a large enough effect; inconclusive means small, poorly fitted or top-dose-only effect; inactive means no such curve, though single readings can be large or run the other way. Potencies of inconclusive entries are left out as doubtful fits.

Experiment: A quantitative high throughput screen for small molecules that induce DNA re-replication in MCF 10a normal breast cells. Further: nearly all actives have a fitted effect of over 50% in size. On activity, positive = re-replication: % of control where 0% means no effect.
Settings: MCF 10A DNA re-replication, Hoechst nuclear intensity, 48 h; activity, positive = re-replication: at 46.1 µM (top of the series)
Potency means the concentration at half of the fitted maximal effect; tags describe the fitted curve by direction and shape.

Q: Which “activity, positive = re-replication” value does the source give for `CCn1c(SCc2cccc(C)c2)nnc1-c1ccc(C)cc1` here?
A: inactive: 27.5%

Q: With `Cc1nn2c(NCCN3CCOCC3)c3c(nc2c1-c1ccccc1)CCCC3` as the compound, how does the Potency read?
A: inconclusive [activator, partial curve, poor fit]

Q: Which Potency does the source give for `CCCCCC(O)CCCC(=O)O` (stereo not given) here?
A: inconclusive [activator, single point]

Q: With `CCN(CC(=O)Nc1ccc(C)c(F)c1)CC(=O)NC(C)C` as the compound, how does the “activity, positive = re-replication” value read?
A: inactive: -5.36%

Q: For `COc1ccc2[nH]c3c(c2c1)CCN1C(=O)C(CC(=O)NCc2ccc(OC)c(OC)c2)C[C@H](C(=O)N(C(C)C)C(C)C)[C@@]31C` (stereo not given in full), which Potency is on record?
A: inconclusive [activator, full curve, poor fit]

Q: For `Cc1cc(-c2nnc(CCC(=O)NC(C)c3ccc(F)cc3)o2)no1` (stereo not given), which Potency is on record?
A: inconclusive [activator, partial curve, poor fit]

Q: Which Potency does the source give for `COc1ccc(CNCc2cc(C)c(OC)cc2C)c(OC)c1` here?
A: inconclusive [activator, single point]

Q: Which Potency does the source give for `Cc1ccc(C(=O)O/N=C(\N)c2ccccn2)c(C)c1` here?
A: active: 7.31 µM

Q: With `CSC(=NCc1ccc(F)cc1)NS(=O)(=O)c1cccs1` as the compound, how does the Potency read?
A: inconclusive [activator, partial curve, poor fit]

Q: For `CCc1ccccc1N(C)S(=O)(=O)c1ccc2[nH]cc(C(=O)N3CCc4ccccc43)c(=O)c2c1`, which Potency is on record?
A: inconclusive [activator, single point]

Q: For `COc1cc(CC(=O)Nc2cc(S(=O)(=O)N3CCOCC3)ccc2N2CCCC2)cc(OC)c1OC`, which “activity, positive = re-replication” value is on record?
A: inactive: 14.3%

Q: With `CCN(CC)CCNC(=O)c1sc2ncn(CC(=O)Nc3ccc(C)c(Cl)c3)c(=O)c2c1C` as the compound, how does the Potency read?
A: inconclusive [activator, single point]

Q: Which “activity, positive = re-replication” value does the source give for `Cc1cccc2sc(NS(=O)(=O)c3ccccc3)nc12` here?
A: inactive: 7.25%

Q: For `O=C(CN1N=C(c2ccccc2)CCC1=O)NCc1ccccc1`, which “activity, positive = re-replication” value is on record?
A: inactive: -0.555%

Q: For `COc1ccc(-c2csc(NC3OC(=O)c4ccccc43)n2)cc1` (stereo not given), which Potency is on record?
A: active: 11.6 µM

Q: With `O=[N+]([O-])c1cc(/C=N/OCc2c(Cl)cccc2Cl)ccc1N1CCOCC1` as the compound, how does the Potency read?
A: inconclusive [activator, partial curve, poor fit]

Q: Which Potency does the source give for `COc1ccc(CN(C)C(=O)c2ccc(NC(=O)CC3SC(N4CCCC4)=NC3=O)cc2)c(OC)c1` (stereo not given) here?
A: inconclusive [activator, single point]

Q: With `COc1ccc(/C=C2\C(=O)NCC(=O)N2Cc2ccccc2)cc1` as the compound, how does the Potency read?
A: inconclusive [activator, single point]

Q: Which Potency does the source give for `Cc1cc(NC(=O)COC(=O)[C@@H](NS(=O)(=O)c2ccccc2)C(C)C)no1` here?
A: inconclusive [activator, single point]

Q: With `O=C(c1ccc(N2CCN(C(=O)c3ccc(F)cc3F)CC2)cc1)c1cccc(F)c1` as the compound, how does the Potency read?
A: inconclusive [activator, single point]

Q: Which “activity, positive = re-replication” value does the source give for `c1ccc(Cc2nnc(N3CCCCC3)c3ccccc23)cc1` here?
A: inactive: 20.3%

Q: With `C1CCC(c2nn3c(-c4n[nH]c5c4CCC5)nnc3s2)CC1` as the compound, how does the “activity, positive = re-replication” value read?
A: inactive: -1.57%

Q: Which “activity, positive = re-replication” value does the source give for `O=c1cc2[nH]c3ccccc3c(=O)n2nc1-c1ccccc1` here?
A: inactive: -6.29%

Q: With `CCc1ccccc1N(C)S(=O)(=O)c1ccc(-c2cc(C)no2)s1` as the compound, how does the Potency read?
A: active: 2.31 µM

Q: With `Cc1cc(C)nc(NS(=O)(=O)c2ccc(NC(=O)C3COc4ccccc4O3)cc2)n1` (stereo not given) as the compound, how does the “activity, positive = re-replication” value read?
A: inactive: -4.07%

Q: Which Potency does the source give for `Cc1ccc(NC(=O)Cn2nnc(-c3ccccc3NC(=O)c3cccs3)n2)cc1` here?
A: active: 6.51 µM

Q: With `OCC1(Cc2ccc(Cl)cc2)CCN(Cc2ccc3nsnc3c2)CC1` as the compound, how does the Potency read?
A: inconclusive [activator, partial curve]

Q: Which “activity, positive = re-replication” value does the source give for `NC(=O)CC(NC(=O)c1ccc(Br)cc1)c1ccc(N2CCN(c3ccccc3)CC2)c([N+](=O)[O-])c1` (stereo not given) here?
A: inactive: 0.594%

Q: For `O=C(c1ccncc1)N1CCN(C2CCC(c3ccccc3)CC2)CC1` (stereo not given), which Potency is on record?
A: inconclusive [activator, single point]

Q: Which Potency does the source give for `N#CC(C(=O)NC1CCCCC1)c1nc2ccccc2nc1N1CCN(c2ccccc2F)CC1` (stereo not given) here?
A: inconclusive [activator, full curve]

Q: With `Cc1ccc(S(=O)(=O)N2CCOCC2)cc1C(=O)OCC(=O)c1ccc[nH]1` as the compound, how does the “activity, positive = re-replication” value read?
A: inactive: 1.67%

Q: With `OC1CCCN(c2ncnc3c2nnn3Cc2c(F)cccc2Cl)C1` (stereo not given) as the compound, how does the Potency read?
A: active: 16.4 µM

Q: For `Cc1ccc(N(CC(=O)NCc2ccc(F)cc2)S(=O)(=O)c2cccs2)cc1`, which “activity, positive = re-replication” value is on record?
A: inactive: 3.39%

Q: Which Potency does the source give for `O=C(NCc1ccco1)Nc1ccc2nsnc2c1` here?
A: inconclusive [activator, partial curve, poor fit]

Q: Which Potency does the source give for `Cn1nnnc1Sc1ncnc2scc(-c3ccc(-c4ccccc4)cc3)c12` here?
A: active: 8.2 µM

Q: Which Potency does the source give for `COC(=O)c1ccccc1NC1=C/C(=N\S(=O)(=O)c2cccs2)c2ccccc2C1=O` here?
A: active: 18.4 µM

Q: For `Clc1ccc(-c2noc(CN(Cc3ccccn3)CC3CCCO3)n2)cc1` (stereo not given), which “activity, positive = re-replication” value is on record?
A: inactive: -0.175%

Q: Which Potency does the source give for `Cc1ccc(Nc2nc(N)c(C#N)c(CC#N)c2C#N)cc1` here?
A: active: 20.6 µM

Q: For `COc1ccccc1/C=C1\SC(=O)N(CCC(=O)NNC(=O)c2ccccc2Cl)C1=O`, which Potency is on record?
A: inconclusive [activator, partial curve, poor fit]

Q: With `COC(=O)c1cc2c(N)c(C(=O)c3ccccc3)sc2nc1C(OC)OC` as the compound, how does the Potency read?
A: inconclusive [activator, single point]

Q: With `CC(Nc1cc(N2CCN(S(=O)(=O)N(C)C)CC2)ccc1[N+](=O)[O-])c1ccccc1` (stereo not given) as the compound, how does the “activity, positive = re-replication” value read?
A: inactive: -3.2%

Q: Which Potency does the source give for `C[C@@H]1CN([C@@H](C)CO)C(=O)Cc2cc(NC(=O)Nc3ccc(C(F)(F)F)cc3)ccc2O[C@@H]1CN(C)S(=O)(=O)c1ccc(Cl)cc1` here?
A: inconclusive [activator, single point]

Q: Which Potency does the source give for `O=C1C=CC(=O)N1CCCCCCCCCCN1C(=O)C=CC1=O` here?
A: inconclusive [activator, full curve, poor fit]

Q: For `Cc1ccc2nc(N3CCC(C(=O)NC4CCCCC4)CC3)sc2c1`, which “activity, positive = re-replication” value is on record?
A: inactive: 8.51%

Q: Which Potency does the source give for `Cc1ccc(S(=O)(=O)Cc2ccc([N+](=O)[O-])cc2)cc1` here?
A: inconclusive [activator, partial curve, poor fit]
